From PubChem BioAssay AID2546 (National Center for Advancing Translational Sciences (NCATS), 2010)
Among all 310,000 compounds or so, about 11,000 (3.5%) were called active. The inconclusive results got no clear call from the source; some entries with a clear call stand among them for comparison. Calls follow the shape of the dose curve; as a rule, active = well fitted inhibition curve with a large enough effect; inconclusive = small, poorly fitted or top-dose-only effect, or effect the other way; inactive = flat fitted curve, though single readings scatter. Potencies of inconclusive entries are left out as doubtful fits.

Test: VP16 counterscreen qHTS for inhibitors of ROR gamma transcriptional activity;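 also: Gal4-VP16 expression switched on by copper sulfate through the metallothionein promoter; nearly all actives have a fitted effect of over 50% in size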
Details: Drosophila S2 Gal4-VP16 UAS-luciferase, luminescence, 20 h; series mostly up to 53.6 µM
Potency is read from the fitted curve at half-maximal effect; tags tell the direction and shape of the fitted curve.

Row | SMILES | Potency
1 | CC(C)c1ccc(NC(=S)NCCc2c[nH]c3ccccc23)cc1 | inconclusive [inhibitor, single point]
2 | COc1ccc(-c2noc(CSc3nnc(-c4ccccc4)n3C)n2)cc1 | inconclusive [inhibitor, single point]
3 | Fc1ccc(C2=CC(c3ccc(Br)o3)n3ncnc3N2)cc1 (stereo not drawn) | inconclusive [inhibitor, single point]
4 | Clc1ncnc2scc(-c3ccc(Br)cc3)c12 | inconclusive [inhibitor, single point]
5 | COc1ccc(C(=O)NNC(=S)NC(=O)c2cc(-c3ccccc3)nc3ccccc23)cc1 | inconclusive [inhibitor, single point]
6 | O=C(NNC(=O)c1ccco1)c1cccc(Br)c1 | inconclusive [inhibitor, single point]
7 | CCOc1c(Cl)cc(CNCC(O)c2ccccc2)cc1OC (stereo not drawn) | inconclusive [inhibitor, single point]
8 | Nc1c(C(=O)Nc2ccccc2)sc2nc(-c3ccco3)ccc12 | inactive
9 | Fc1ccc(NC(=S)Nc2ccccc2OC(F)F)cc1Cl | inconclusive [inhibitor, single point]
10 | COc1ccc(CNC(=O)c2cc(-c3ccncc3)nc3c(C)cc(C)cc23)cc1OC | inconclusive [inhibitor, single point]
11 | Cc1cc(/C=N/NC(=O)CC2(C)OCCO2)c(C)n1-c1ccc(Cl)c(Cl)c1 | active: 12.6 µM
12 | CC(=O)Oc1ccc(-c2cccc(C(=O)N(C)c3ccc(O)cc3)c2)cc1 | inactive
13 | OCC#CCSc1nnc(-c2ccncc2)o1 | inconclusive [inhibitor, single point]
14 | S=C(Nc1ccccc1)Nc1ccc2cn[nH]c2c1 | inactive
15 | COc1ccc(C(=O)C2CCCN(C(=O)CCc3scnc3C)C2)c(C)c1 (stereo not drawn) | inconclusive [inhibitor, single point]
16 | O=C(c1ccc2c(=O)n(Cc3ccco3)c(=S)[nH]c2c1)N1CCN(Cc2ccccc2)CC1 | inconclusive [inhibitor, single point]
17 | Cc1cccc(/C=C2\Sc3ccc(C(=O)N4CCC(C(N)=O)CC4)cc3N(C)C2=O)c1 | inactive
18 | Cc1ccc(/C=N/NC(=O)c2ccc(Br)o2)s1 | active: 10 µM
19 | O=C(Nc1ccccc1)Nc1cc(OCC(F)(F)F)cc(OCC(F)(F)F)c1 | active: 15.8 µM
20 | Cc1ccccc1NC1c2ccccc2C(=O)N1Cc1ccco1 (stereo not drawn) | inconclusive [inhibitor, single point]
21 | CCn1c(=O)cc(SCC(=O)NCc2ccc(C)cc2)c2ccccc21 | inactive
22 | O=C(Nc1cccc2ccccc12)N1CC=C(c2ccccc2)CC1 | inactive
23 | CC(C)OCCCNC(=O)C(NC(=O)c1ccc(Cl)cc1)C(C)C (stereo not drawn) | inconclusive [activator, single point]
24 | Cc1ccc(-c2cc3nc(C)cc(NCc4ccco4)n3n2)cc1 | inconclusive [inhibitor, single point]
25 | O=C1C(NS(=O)(=O)c2ccc(Cl)cc2)=C(N2CCCCC2)C(=O)c2ccccc21 | inconclusive [inhibitor, partial curve]

Row | SMILES | Potency
26 | N/C(=N\OC(=O)c1cccc(Cn2cc(C(F)(F)F)ccc2=O)c1)c1ccc(Cl)cc1 | inconclusive [inhibitor, single point]
27 | CC(C)NC(=S)N/N=C/c1ccc(C(C)(C)C)cc1 | active: 2.24 µM
28 | Cc1ccccc1OCC(=O)N/N=C/c1ccc2c(c1)OCCO2 | inconclusive [inhibitor, single point]
29 | COc1cccc(C(=O)Nc2nnc(-c3ccccc3)s2)c1 | inactive
30 | C/C(=N\NC(=O)c1ccc([N+](=O)[O-])cc1)c1cc2ccccc2oc1=O | inconclusive [inhibitor, single point]
31 | COC(=O)Cn1nc(-c2ccccc2)c2cc(Cl)ccc21 | inconclusive [inhibitor, single point]
32 | O=C(CN1C(=O)CC(c2ccco2)Sc2ccccc21)NCc1ccc2c(c1)OCO2 (stereo not drawn) | inactive
33 | CN(C)c1ncc2nc(-c3ccc(F)cc3)c(=O)n(C[C@H]3CCCO3)c2n1 | inactive
34 | O=C(COC(=O)c1c2c(nc3ccccc13)CCCCC2)NCc1ccc2c(c1)OCO2 | inconclusive [inhibitor, partial curve]
35 | CC1CCCCN1S(=O)(=O)c1ccc(C(=O)N(CCCN(C)C)c2nc3ccc(Br)cc3s2)cc1 (stereo not drawn) | inconclusive [inhibitor, single point]
36 | CCn1cnc2cc(NC(=O)c3ccco3)ccc21 | inconclusive [inhibitor, single point]
37 | Oc1c(C(Nc2ccccn2)c2cccnc2)cc(Cl)c2cccnc12 (stereo not drawn) | active: 4.47 µM
38 | FC(F)(F)c1ccccc1-c1nc(NCc2cccnc2)c2ccccc2n1 | inactive
39 | CC(C)(C)[C@H]1C=C(C(=O)NCc2ccccc2)O[C@@H](OCc2ccc(CO)cc2)C1 | inconclusive [inhibitor, single point]
40 | O=C(c1cccc(F)c1)N1CCN(c2cc(N3CCCCC3)c(F)cc2[N+](=O)[O-])CC1 | inconclusive [inhibitor, single point]
41 | COc1ccc2nc(NC(=O)c3cccnc3SC)sc2c1 | inactive
42 | O=C(Cn1c(-c2ccccc2)c[n+]2ccsc12)c1ccccc1 | inconclusive [activator, single point]
43 | CCN(CC)S(=O)(=O)c1ccc(F)cc1 | inactive
44 | Cc1ccc(C2=NC3(CCCC3)NC2=S)cc1 | active: 7.94 µM
45 | CCOC(=O)Cc1ccc(NC(=O)c2ccc(C(C)(C)C)cc2)cc1 | inconclusive [inhibitor, partial curve]
46 | Cc1cccc(C(=O)N/N=C/c2cc(Br)c(Br)o2)c1 | inconclusive [inhibitor, single point]
47 | O=C(N/N=C/c1ccc(Cl)c([N+](=O)[O-])c1)C1CC1 | inconclusive [activator, single point]
48 | COc1ccc(N/C=C2\CCc3ccccc3C2=O)cc1 | inconclusive [inhibitor, partial curve]
49 | O=c1c(Cc2ccc(Cl)cc2)c(O)ccn1Cc1cccc(Cl)c1 | inactive
50 | O=C(COc1ccc(Cl)cc1Cl)N/N=C/c1ccccn1 | inconclusive [inhibitor, single point]

Row | SMILES | Potency
51 | COC(=O)c1ccc(C2c3[nH]c4ccccc4c3C[C@H]3C(=O)N(C4CC4)CC(=O)N23)cc1 (stereo partly drawn) | inactive
52 | CCOCCCNC(=O)C1(O)c2ccccc2NC(=O)N1c1ccc(Cl)cc1 (stereo not drawn) | inconclusive [activator, partial curve, poor fit]
53 | COc1ccccc1N1CCN(S(=O)(=O)c2ccc(-c3cnc(C4CC4)o3)cc2)CC1 | inactive
54 | O=C(CCS(=O)(=O)c1ccc(Br)cc1)N1CCN(c2ccc(Cl)cc2)CC1 | inconclusive [inhibitor, single point]
55 | Cc1ccc(C(=O)NCC(=O)OC(C)C(=O)Nc2ccc(N(C)C)cc2)s1 (stereo not drawn) | inactive
56 | Cc1ccc(S(=O)(=O)NCC2CCC(C(=O)NC3CCCCC3)CC2)cc1 (stereo not drawn) | inactive
57 | O=C(N/N=C/C=C\c1ccccc1[N+](=O)[O-])c1cc(-c2ccc3ccccc3c2)n[nH]1 | active: 4.47 µM
58 | CCOC(=O)c1c(Cc2cccc(Cl)c2)c[nH]c1C | inconclusive [inhibitor, single point]
59 | CCC(=O)c1ccc(N2CCN(C(=O)c3ccc(Br)cc3)CC2)c(F)c1 | inconclusive [inhibitor, partial curve]
60 | CCCCc1ccc(NC(=S)NCc2cccs2)cc1 | inconclusive [inhibitor, single point]
61 | CCSc1nnc(NC(=O)CSc2nccn2-c2cc(C)cc(C)c2)s1 | inconclusive [inhibitor, single point]
62 | CCCn1c(NC(=O)C2CCN(C(=O)c3ccc(F)cc3)CC2)nc2ccccc21 | active: 8.91 µM
63 | COc1ccccc1Nc1nc2c(s1)CCC2 | inactive
64 | Cc1occc1C(=O)Nc1cccc2ccccc12 | inconclusive [activator, full curve, poor fit]
65 | COc1cc2[nH]c(=S)n(C3CCCC3)c(=O)c2cc1OC | active: 2.82 µM
66 | Cc1cccc(NC(=S)NNC(=O)c2ccccc2OC(F)F)c1 | inconclusive [inhibitor, single point]
67 | c1ccc(-c2noc(-c3ccc4ccccc4c3)n2)nc1 | active: 2.24 µM
68 | CC(C)NC[C@@H](O)c1ccc(O)c(O)c1 | inactive
69 | CC(C)c1ccc(/C=C2\CC/C(=C\C=N\N(C)C)C2=O)cc1 | inconclusive [inhibitor, single point]
70 | COc1ccc(C(NC(=O)c2cccnc2)c2cc(Cl)c3cccnc3c2O)cc1OC (stereo not drawn) | active: 3.98 µM
71 | O=C(NCCCN1CCN(c2ccccc2F)CC1)C1CCCN(S(=O)(=O)c2cnc[nH]2)C1 (stereo not drawn) | inconclusive [inhibitor, single point]
72 | Cc1ccc(C(=O)CSc2nnc3c4ccccc4nc(Cc4ccccc4)n23)cc1 | inconclusive [inhibitor, single point]
73 | O=[N+]([O-])c1ccc(/C=N/NC(=S)Nc2ccccc2)o1 | inconclusive [inhibitor, full curve, poor fit]
